# Data from PMC6212790.
# Some of the results follow. At the low end of the ranking, values are background and their order means little.
# Biological target: T1, GST-Rok-C97-191 (UniProt O34857)
# T1 sequence: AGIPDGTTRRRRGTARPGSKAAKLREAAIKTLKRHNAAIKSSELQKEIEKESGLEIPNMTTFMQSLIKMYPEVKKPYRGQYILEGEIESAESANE
# Assay: protein binding microarray;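 note: rank score from −0.5 (least bound) to 0.5 (best bound)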
# Conditions: Rok is a gene silencer of Bacillus subtilis; high values mean tight binding; most listed sequences are background and not binding sites; double strand, one strand shown
row,Sequence,binding signal [E-score]
1,ACGCTACT,0.209
2,AAGGAACG,-0.244
3,TGCCCCAA,-0.241
4,CCCTCAAC,0.0398
5,CGGTCTTA,0.0367
6,ATTCTCTA,0.21
7,TCGAATAA,0.0824
8,GATCCATA,-0.0337
9,ATAGTGTG,0.0365
10,AGAAGTAA,0.231
11,ACATGCGG,0.0405
12,TAAAACAA,0.0349
13,AACCGGCG,-0.12
14,CACATCCG,0.00313
15,GGAATAAC,-0.0244
16,CCCGAACC,-0.146
17,GGTTAGTA,0.00825
18,GAATCGGA,-0.078
19,GGAGGGAC,-0.279
20,CGAAATAG,0.0431
21,ACCAAGAC,-0.0137
22,ACAGGTCG,-0.236
23,CCCCCCGA,-0.38
24,CCGGAAGC,-0.279
25,AATTATAC,0.348

row,Sequence,binding signal [E-score]
1,TAATCACA,0.0445
2,GAGCAGAA,-0.173
3,CACGTTTC,0.00548
4,CGGATGTA,0.148
5,TCTTCCAA,-0.255
6,GCTCTTAA,-0.131
7,CCGTGGAG,-0.0132
8,TAACGTAA,-0.0712
9,ATTTATAC,0.348
10,ACAGTTGA,0.152
11,ATCGGGAC,-0.126
12,CACGGACA,-0.294
13,GACCGAGA,-0.169
14,AGTACGAT,0.149
15,ATAGTTTA,0.354
16,AAATGGTG,-0.075
17,CCACTGCA,-0.174
18,ACTCCATC,-0.0741
19,AGGCTCGC,-0.3
20,ATCGATTA,0.0142
21,CTACGCGC,-0.0725
22,ACCCAGCG,-0.164
23,ATTTATGG,0.174
24,ACTAAACA,0.11
25,ACGCGCCT,-0.21

row,Sequence,binding signal [E-score]
1,GACGCACA,-0.354
2,CGTGCGCC,-0.362
3,ATAGTGGG,0.129
4,CGCGGCCA,-0.406
5,AGCTCGTA,0.00298
6,ATAGGCCG,-0.0602
7,GCGACGGA,-0.261
8,CCACAGGA,-0.0505
9,CCAAGCTA,0.0958
10,CGCCGTCA,-0.0373
11,AGTACGGG,-0.0188
12,ACCTTGTG,0.0568
13,GTTGAGTA,0.00502
14,CCTAGGCC,-0.204
15,AACATAAG,0.194
16,ACAGGGCG,-0.271
17,CCGGCCAC,-0.268
18,AGAGGATA,-0.0217
19,CTCATGAG,-0.141
20,AGGCTCCC,-0.281
21,ACTGCTAG,0.105
22,CAACGCAG,-0.0345
23,ACGGTCCC,-0.309
24,AACGCACT,0.151
25,AGGTGGAA,-0.0991

row,Sequence,binding signal [E-score]
1,AGCCTCCC,-0.266
2,AAGTTCGG,-0.118
3,ACTGAGCA,-0.11
4,CGCTAGTC,-0.137
5,ATACCATG,0.202
6,AAATTTAG,0.242
7,ACATAAAG,-0.111
8,AATGGTTC,-0.0214
9,CTACACCA,0.0773
10,ATGCTTGG,0.0526
11,CACAGAAA,0.162
12,GAGAGGCA,-0.235
13,GCTGCCGA,-0.236
14,CTGCGTCA,-0.204
15,AGCGTTCC,-0.026
16,GAGTTGAA,-0.0634
17,CCCACAGG,-0.104
18,ACTCAGGC,-0.123
19,ATTTTTGG,0.166
20,AATGAGCG,-0.202
21,GTTTCTTA,0.195
22,CAACCCCG,-0.309
23,CGATGTAA,0.00338
24,ACTGCAGG,0.022
25,CCTGGACA,-0.0965

row,Sequence,binding signal [E-score]
1,GGTCCCAA,-0.183
2,ATAAGTGA,0.0568
3,ATAAAAAG,0.191
4,CCTGAACA,-0.0783
5,GATGGTTA,-0.0423
6,ATAGCGAT,0.232
7,CATGTGGA,0.124
8,GAGAGATC,-0.0931
9,AACAGAAC,0.0833
10,AACCGAAT,-0.106
11,ATCTCCAC,-0.0487
12,AAACAAAC,-0.248
13,CAGACCAG,-0.253
14,ACGGCTGA,-0.222
15,CTCGCGTC,-0.286
16,TGCCTGAA,-0.0885
17,AAATGTTG,0.00331
18,ACTGCCAA,-0.198
19,CCGAGTCG,-0.148
20,AGTCATCA,-0.123
21,GGAATTGA,0.105
22,GCGATTAC,-0.196
23,ATCTGCCG,0.13
24,AATTCTCG,0.243
25,GAGAACTA,0.242

row,Sequence,binding signal [E-score]
1,CATTGATC,0.197
2,ATCGATCA,0.179
3,GGAAGCAA,-0.106
4,AGTATAAC,0.13
5,GCAACTCA,-0.0426
6,CGTGCCCA,-0.304
7,GGACGGCC,-0.357
8,CAATAGCA,0.0689
9,GCAGATCA,-0.215
10,ATCACTGG,-0.0556
11,TAGATACA,0.329
12,CGAGTAAG,-0.262
13,AACCGTCG,-0.167
14,CGTTTTGA,-0.0763
15,CTGTTGCA,-0.0379
16,CTCGTGAC,-0.183
17,ACCCCTCA,-0.271
18,TGATAGCA,0.236
19,CCAACAGC,-0.0285
20,GGGAACGA,-0.0532
21,ATGCTATC,0.283
22,CGATCTAA,-0.0333
23,GCTAATAA,0.212
24,AGTGAAGG,-0.256
25,CGTCCCGC,-0.289

row,Sequence,binding signal [E-score]
1,ATCAACCA,-0.0125
2,CAAGCGTA,0.0078
3,CCGCGGAC,-0.146
4,TATCGGGA,0.156
5,AGACCGCC,-0.225
6,GTAACTCA,0.162
7,AATACTCC,0.275
8,ATTAGATC,0.0978
9,AGAAATCC,0.0236
10,AGCAGCTG,-0.199
11,AACAACAA,0.1
12,GTCTCTGA,0.0338
13,CATGAGGC,-0.211
14,CCGTTAGA,-0.114
15,ATAGAACG,0.159
16,CAATCCAG,0.0523
17,GCCATGGC,-0.27
18,CGCTAGCA,0.058
19,CGAGCCCA,-0.249
20,CACAGCAC,-0.0657
21,CTGATATC,-0.0192
22,AAGTGGGC,-0.201
23,ACAGAACC,-0.15
24,CAAGACGA,-0.0601
25,CTCTGTGA,-0.00307

row,Sequence,binding signal [E-score]
1,CAAAGGAC,-0.168
2,CAGTCGCG,-0.242
3,AGACAGGC,-0.177
4,AAACGTGA,-0.0327
5,CTGAAAGC,-0.2
6,AAATGTAT,0.27
7,AGCTATCG,0.266
8,TCTCCAAA,0.0829
9,GTGGTGGA,-0.0143
10,CTCCCAAC,-0.0897
11,AGAACCAT,0.0927
12,CTAGCGAC,-0.0545
13,CGATACCA,0.079
14,CAGGTGGA,-0.331
15,CGTTAATC,-0.0282
16,AAGCCGAG,-0.0461
17,AGAGTAGA,0.143
18,AACCCATA,0.149
19,CCTCCAAA,-0.223
20,CATACCGA,0.0669
21,CCTCGCCA,-0.266
22,ACTACCCT,0.163
23,ATTAAACA,-0.0268
24,AGGGACGA,-0.218
25,AGTAATTG,0.31

row,Sequence,binding signal [E-score]
1,CGATAGTA,0.382
2,TCACTCGA,0.0326
3,ACACTGGT,0.0216
4,AAGAAGAA,-0.202
5,TCACATGA,0.0772
6,ATGCTGGC,0.0262
7,GGATCTCA,-0.115
8,CCTGACTA,-0.135
9,ATGCGTGC,-0.261
10,ACGGGGCC,-0.132
11,GGGACACA,-0.121
12,GCGGGTCA,-0.143
13,CCGATTAC,-0.0648
14,ACCGTGAA,-0.0551
15,AACCGCTA,0.19
16,CATCTGAG,0.137
17,ACTGCAAA,0.0159
18,ACAGGACT,-0.143
19,AGTGGTCA,-0.106
20,CCGTTTCC,-0.121
21,AAATGGGT,0.18
22,CCCTAACG,-0.25
23,GCGCACGA,-0.25
24,AATAGTAC,0.293
25,CATGTCGA,-0.00927

row,Sequence,binding signal [E-score]
1,AACTAGCT,0.342
2,ACTCCCAT,0.0238
3,CGGGATAA,0.0954
4,CCCGATTA,-0.026
5,ATGAATCC,0.0584
6,ATGTTCTC,0.0718
7,CCTTGACC,-0.0957
8,ACCGCCGT,-0.0192
9,AACATTGG,-0.141
10,AGCGGAGG,-0.227
11,GCAATTCA,0.0922
12,GATCATGA,0.0364
13,ACTGAAGC,-0.0393
14,GGTGTCAC,-0.0727
15,AGTCGCCC,-0.209
16,CACTAGGC,-0.0137
17,ACGGGTGG,-0.0117
18,TATAATAA,0.374
19,CGGCAAAC,0.168
20,GCACTTCC,-0.0221
21,CCACAAGA,-0.0122
22,GCTGATAC,-0.05
23,ACCGCGAG,-0.167
24,ATTGTAAC,0.185
25,GATATACC,0.153

row,Sequence,binding signal [E-score]
1,CGAATTTC,0.0914
2,GAGTCACA,-0.0339
3,CACGACTA,0.0522
4,AATAAATA,0.258
5,CTCAGTAC,-0.0313
6,GACCGAGC,-0.195
7,AACGCGGA,-0.147
8,CAGGAGCG,-0.131
9,GCTCTGCA,-0.158
10,ATCCAAGA,0.167
11,CCCTTACA,0.0781
12,AGTGTGGC,-0.16
13,CATAGACC,0.0635
14,ATGCATCC,-0.109
15,TCGGTGAA,-0.0788
16,TTCCAGAA,0.0997
17,ACTCTCAA,-0.0398
18,ACAGAAAC,0.121
19,CGCAGAAG,-0.171
20,GCATGCAC,-0.209
21,ATTTCGAA,0.0379
22,GTACTCTA,0.205
23,CACACCGC,0.152
24,CAGGCGTC,-0.146
25,ACCACCTA,0.0261

row,Sequence,binding signal [E-score]
1,CCCAGTCA,-0.198
2,AACAAACG,-0.0605
3,CCGCACAG,-0.277
4,CCGGCTGA,-0.0819
5,ATAGGTGA,-0.0624
6,AGCAGTCG,-0.179
7,AGTTCAAG,0.0194
8,GCAGCTCC,-0.115
9,CGAGGGAA,-0.0959
10,CATACGCA,0.0592
11,AGGGCACT,-0.0365
12,AGTCTACA,0.0463
13,ACGCCAGA,-0.13
14,GTGCTCGA,-0.0814
15,ATTAGCAG,0.0537
16,TAGTTTGA,0.31
17,GGAAATCC,-0.344
18,AAACTCAC,0.074
19,AATGACAT,0.115
20,GATGCAAA,-0.0546
21,GTATGCCA,0.096
22,CGTTGTAA,0.104
23,CTCAACGC,0.0818
24,GCTGGTCC,-0.187
25,AAGAGAAA,0.121

row,Sequence,binding signal [E-score]
1,ACGGTTGG,-0.0902
2,AAATCCTT,-0.0125
3,AGAGTGAA,-0.0588
4,AAGAACTC,0.0626
5,CGATTAAG,0.00538
6,GGTAGTAA,0.396
7,CATCTAAC,0.0116
8,GGATTACC,-0.136
9,CAACTCGA,0.0565
10,AATCGCAC,-0.0861
11,TCTATACA,0.155
12,AGAGCTGC,-0.0455
13,CTAGCTAC,0.163
14,AGGTACAT,0.184
15,GGACAGAC,-0.0976
16,CCATCACG,-0.26
17,ACAGCATG,0.0808
18,AAAGTGAG,0.0398
19,GTCCGCAC,-0.0626
20,CAGTTCAG,-0.167
21,GACCACTA,0.0394
22,TCAAAAAA,-0.0915
23,CCAGGTGA,-0.032
24,CGTTATAA,0.176
25,TCCGCCAA,-0.23

row,Sequence,binding signal [E-score]
1,GATTTGAA,0.0956
2,GAGCTACC,-0.142
3,TGGAACAA,0.0826
4,CACTGTCC,0.0415
5,ATTTTGCG,0.0669
6,ACGCTCCT,-0.0443
7,CCGTTCCA,0.0402
8,CTGATCAA,-0.0448
9,ACATCAGA,-0.0562
10,ACCTTAAG,0.0939
11,AGGGTTTG,-0.0397
12,CTAGGTCA,-0.0732
13,TACGACCA,0.0695
14,CCTAGTTC,0.0163
15,AGTTTACA,0.155
16,AAAGAGAA,0.00506
17,AACAGTGT,0.232
18,ACCACCTC,0.0137
19,GGACATCC,-0.169
